Experimental data published in a collection of fitness landscapes (doi:10.1016/j.celrep.2020.107928).
In all, about 81,000 sequences were measured (“one-hybrid fitness for binding NBS DNA”: median about -0.1, highest 2% from about 0.36 on). This is one part of the list.

B1: Caulobacter ParB omega fusion; a variant is named by its letters at X, in order, B8GW30 (parent)
chain: MESVVVGEPGMSEGRRGLGRGLSALLGEVDAAPAQAPGEQLGGSREAPIEILQRNPDQPRRTFREEDLEDLSNSIREKGVLQPILVRPSPDTAGEYQIVAGERAWRAAQRAGLKTVPIMVRELDDLAVLEIGIIENVQRADLNVLEEALSYKVLMEKFERTQENIAQTIGKSXSHVANXMRLLXLPDEVQSYLVSGELTAXHARAIAAAADPVALAKQIIEGGLSVRETEALARKAPNLSAGKSKGGRPPRVKDTDTQALESDLSSVLGLDVSIDHRGSTGTLTITYATLEQLDDLCNRLTRGI

Variants of: B1
Test: one-hybrid fitness for binding NBS DNA (the Noc-binding site; scaled: cognate 1, non-cognate 0); higher = stronger binding
Conditions: with NBS DNA site
Method in brief: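 Pre- and post-selection plasmids were Illumina-sequenced, three replicate libraries were pooled, and any variant with under 10 reads was removed. The libraries were Caulobacter ParB with four specificity codons randomised, selected in E. coli USO through a HIS3 reporter whose site is 19 bp from the promoter. Cells grew 48 hours at 37°C on M9 without histidine, with 0.1 mM IPTG and 5 mM 3-AT. Fitness is the log change in variant-to-wild-type read ratio, rescaled against cognate and non-cognate.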

Variant | one-hybrid fitness for binding NBS DNA
TGKH | ≤ 0.2
QFDY | ≤ 0.2
VFTM | ≤ 0.2
NDLF | ≤ 0.2
ASAG | ≤ 0.2
ARFI | ≤ 0.2
MCIG | ≤ 0.2
YDTR | ≤ 0.2
PRQE | ≤ 0.2
CSQV | ≤ 0.2
HMPS | ≤ 0.2
EQPK | ≤ 0.2
MVVC | ≤ 0.2
VAHI | ≤ 0.2
FSKK | ≤ 0.2
CSLP | ≤ 0.2
ARQA | ≤ 0.2
TWHI | ≤ 0.2
LRDN | ≤ 0.2
PSTD | ≤ 0.2
RHWT | 0.221
VALS | ≤ 0.2
YLNE | ≤ 0.2
MLWC | ≤ 0.2

Variant | one-hybrid fitness for binding NBS DNA
SVCF | ≤ 0.2
HTWM | ≤ 0.2
FVGT | ≤ 0.2
ASFS | ≤ 0.2
TYHC | ≤ 0.2
KGRS | ≤ 0.2
RLMV | ≤ 0.2
GYKM | ≤ 0.2
KSAS | ≤ 0.2
RYWR | 0.269
QFCT | ≤ 0.2
GNSR | ≤ 0.2
TCYG | ≤ 0.2
IKWW | ≤ 0.2
WIHG | ≤ 0.2
RMWS | 0.269
AWRM | ≤ 0.2
LMRR | 0.2
SKYP | ≤ 0.2
RFLI | ≤ 0.2
TWAR | ≤ 0.2
MWVG | ≤ 0.2
LFVT | ≤ 0.2
QIHI | ≤ 0.2

Variant | one-hybrid fitness for binding NBS DNA
QCPN | ≤ 0.2
PIHR | ≤ 0.2
PDNS | ≤ 0.2
CWQL | ≤ 0.2
NRIV | ≤ 0.2
NRRR | 0.251
SWRS | ≤ 0.2
QHRR | 0.989
GFDS | ≤ 0.2
AYND | ≤ 0.2
SAKV | ≤ 0.2
LVLH | ≤ 0.2
EKSG | ≤ 0.2
SCQR | ≤ 0.2
LMVP | ≤ 0.2
YVLT | ≤ 0.2
YTGF | ≤ 0.2
QKTY | ≤ 0.2
FRQT | ≤ 0.2
VGKI | ≤ 0.2
SSAK | ≤ 0.2
QHDC | ≤ 0.2
KKKS | 0.425
ITMT | ≤ 0.2

Variant | one-hybrid fitness for binding NBS DNA
EWDG | ≤ 0.2
EAVM | ≤ 0.2
RFIV | ≤ 0.2
AGTG | ≤ 0.2
CPHG | ≤ 0.2
MHMT | ≤ 0.2
AWHM | ≤ 0.2
ATCS | ≤ 0.2
LCMS | ≤ 0.2
STKE | ≤ 0.2
SSTG | ≤ 0.2
DEHT | ≤ 0.2
DCNR | ≤ 0.2
EWTG | ≤ 0.2
QKPE | ≤ 0.2
GGQS | ≤ 0.2
QCTR | 0.637
HQRV | ≤ 0.2
LTNV | ≤ 0.2
TGHN | ≤ 0.2
DGSM | ≤ 0.2
EQPG | ≤ 0.2
MLGM | ≤ 0.2
ERTL | ≤ 0.2

Variant | one-hybrid fitness for binding NBS DNA
YVDW | ≤ 0.2
SGYS | ≤ 0.2
EYQC | ≤ 0.2
RHLK | ≤ 0.2
GFGV | ≤ 0.2
DAHH | ≤ 0.2
IRFR | ≤ 0.2
AWPT | ≤ 0.2
QFLC | ≤ 0.2
PPNL | ≤ 0.2
EKSC | ≤ 0.2
TQWI | ≤ 0.2
TIFP | ≤ 0.2
RHRR | 0.656
QTEN | ≤ 0.2
EDTR | ≤ 0.2
RVFE | ≤ 0.2
TLYI | ≤ 0.2
TCPV | ≤ 0.2
NTVM | ≤ 0.2
TMRS | ≤ 0.2
PPIV | ≤ 0.2
VSQV | ≤ 0.2
VLKA | ≤ 0.2

Variant | one-hybrid fitness for binding NBS DNA
KPRR | ≤ 0.2
SKER | ≤ 0.2
TTQC | ≤ 0.2
TTLG | ≤ 0.2
RYHG | ≤ 0.2
RWER | ≤ 0.2
IQHS | ≤ 0.2
VHQM | ≤ 0.2
HNLT | ≤ 0.2
DHCS | ≤ 0.2
RANA | 0.202
VPGY | ≤ 0.2
TWTS | ≤ 0.2
HIRS | ≤ 0.2
LMPP | ≤ 0.2
DPHI | ≤ 0.2
APHW | ≤ 0.2
RGTM | ≤ 0.2
VGAN | ≤ 0.2
LQDC | ≤ 0.2
VSNT | ≤ 0.2
YVVT | ≤ 0.2
KEVT | ≤ 0.2
VPCF | ≤ 0.2

Variant | one-hybrid fitness for binding NBS DNA
DKRG | ≤ 0.2
SPDV | ≤ 0.2
TNMG | ≤ 0.2
GGNC | ≤ 0.2
SACV | ≤ 0.2
TALL | ≤ 0.2
CSNR | ≤ 0.2
VEGC | ≤ 0.2
CTHF | ≤ 0.2
GECC | ≤ 0.2
LHNK | ≤ 0.2
DGDR | ≤ 0.2
CTTF | ≤ 0.2
GDFY | ≤ 0.2
EKPS | ≤ 0.2
PHNN | ≤ 0.2
YSSC | ≤ 0.2
PQPF | ≤ 0.2
EQGT | ≤ 0.2
KRHT | 0.651
ESRG | ≤ 0.2
GLNV | ≤ 0.2
SYNV | ≤ 0.2
VCRV | ≤ 0.2

Variant | one-hybrid fitness for binding NBS DNA
GRKR | 0.264
CCTE | ≤ 0.2
QSPH | ≤ 0.2
QLSH | ≤ 0.2
PGSK | ≤ 0.2
RCSM | ≤ 0.2
RMQH | ≤ 0.2
WFGS | ≤ 0.2
SASQ | ≤ 0.2
YRHV | ≤ 0.2
YNVS | ≤ 0.2
VMEL | ≤ 0.2
RLYC | ≤ 0.2
CRRY | ≤ 0.2
HYLE | ≤ 0.2
EEHS | ≤ 0.2
YLTR | ≤ 0.2
AEFS | ≤ 0.2
RQSH | ≤ 0.2
CYTY | ≤ 0.2
GQRG | ≤ 0.2
NVMC | ≤ 0.2
EAAL | ≤ 0.2
VGNL | ≤ 0.2

Variant | one-hybrid fitness for binding NBS DNA
WLDE | ≤ 0.2
PQKA | ≤ 0.2
ASPV | ≤ 0.2
LPWL | ≤ 0.2
LKTN | ≤ 0.2
RCSW | ≤ 0.2
GDPL | ≤ 0.2
ATHI | ≤ 0.2
CDLG | ≤ 0.2
SRFF | ≤ 0.2
QWPF | ≤ 0.2
YVHG | ≤ 0.2
WLCF | ≤ 0.2
ALRV | ≤ 0.2
CLCR | ≤ 0.2
ESCF | ≤ 0.2
QSPF | ≤ 0.2
AHRF | ≤ 0.2
ELCS | ≤ 0.2
KNMG | ≤ 0.2
QKQV | ≤ 0.2
QISC | ≤ 0.2
TASN | ≤ 0.2
WLNG | ≤ 0.2

Variant | one-hybrid fitness for binding NBS DNA
IVNS | ≤ 0.2
DVSN | ≤ 0.2
QWAG | ≤ 0.2
ESST | ≤ 0.2
NSPP | ≤ 0.2
TCQS | ≤ 0.2
RPCF | ≤ 0.2
WGLG | ≤ 0.2
PHKY | ≤ 0.2
SIND | ≤ 0.2
QGMH | ≤ 0.2
QCDY | ≤ 0.2
FMTW | ≤ 0.2
IANG | ≤ 0.2
LHHD | ≤ 0.2
CMAY | ≤ 0.2
AVRE | ≤ 0.2
WRQG | ≤ 0.2
CYLV | ≤ 0.2
PCSW | ≤ 0.2
NNLV | ≤ 0.2
KWPT | ≤ 0.2
KLKG | ≤ 0.2
EHTR | ≤ 0.2

Variant | one-hybrid fitness for binding NBS DNA
APKM | ≤ 0.2
TEMT | ≤ 0.2
PPVD | ≤ 0.2
AMPG | ≤ 0.2
NPVC | ≤ 0.2
RRPQ | ≤ 0.2
VRRM | ≤ 0.2
PDIC | ≤ 0.2
QLGV | ≤ 0.2
VMSR | ≤ 0.2
FSRG | ≤ 0.2
PCPN | ≤ 0.2
STDY | ≤ 0.2
PRPN | ≤ 0.2
VMCN | ≤ 0.2
SPPV | ≤ 0.2
AYIL | ≤ 0.2
RHWY | ≤ 0.2
FDNL | ≤ 0.2
VRQY | ≤ 0.2
VQCY | ≤ 0.2
RELM | ≤ 0.2
RFSF | ≤ 0.2
PVAM | ≤ 0.2

Variant | one-hybrid fitness for binding NBS DNA
QCVS | 0.381
VVIE | ≤ 0.2
WGDG | ≤ 0.2
QIPL | ≤ 0.2
RHKQ | 0.219
IMTM | ≤ 0.2
DGCG | ≤ 0.2
YRYS | ≤ 0.2
FMNI | ≤ 0.2
HRHW | ≤ 0.2
FKYE | ≤ 0.2
KVVS | ≤ 0.2
CVPC | ≤ 0.2
DSVT | ≤ 0.2
HFSL | ≤ 0.2
SMLC | ≤ 0.2
DYKR | ≤ 0.2
HTSM | ≤ 0.2
YIYG | ≤ 0.2
SATM | ≤ 0.2
RYNH | 0.209
EHSS | ≤ 0.2
MPRR | ≤ 0.2
NATV | ≤ 0.2

Variant | one-hybrid fitness for binding NBS DNA
TVIM | ≤ 0.2
VCKS | ≤ 0.2
TCNV | ≤ 0.2
IWTS | ≤ 0.2
VRAW | ≤ 0.2
FHCG | ≤ 0.2
MVCC | ≤ 0.2
KRMH | ≤ 0.2
PKAG | ≤ 0.2
PMDG | ≤ 0.2
GRKV | ≤ 0.2
RAFF | ≤ 0.2
ACRA | ≤ 0.2
VSLC | ≤ 0.2
LACS | ≤ 0.2
EVTM | ≤ 0.2
RVVY | ≤ 0.2
VSVG | ≤ 0.2
